Laboratory results reported in patent US12564641B2 (EISAI R&D MANAGEMENT CO., LTD., priority 2019, dated 2026).

Key:
[1] = DAR of ADC in plasma samples by LC-MS (Example 9); assay type: in vivo, mouse; conditions: single dose 10 mg/kg; for Averaged DAR / H-chain (DAR in plasma) / L-chain (DAR in plasma): plasma
Protocol: Dynabeads M-280 streptavidin (100 μL) were incubated with 3 μg of capture select human IgG-Fc PK biotin conjugate for 1 hour at room temperature, then washed with HBS-EP buffer. […] Washed beads containing complex were deglycosylated with Rapid PNGaseF (1 μL) in PNGase buffer for 1 hour at 37° C., then washed once in HBS-EP buffer. […] Samples were analyzed for intact or reduced mass with Synapt G2/M-class UPLC analysis.

[2] = tested on: human mesothelioma HAY xenograft; conditions: single dose 5 mg/kg
Protocol: Female CD-1 IGS mice (Charles River, 7-9 weeks old) were used for the maximum tolerated dose (MTD) study, female NOD.CB17-SCID mice (Jackson Laboratory) were used for the NCI-H2110 and HAY xenograft studies, and female NCr nude mice (Taconic, 5 weeks old) were used for the NCI-N87 xenograft studies. Upon arrival, animals were acclimated for 5-7 days prior to inoculation.
Cryopreserved NCI-H2110, NCI-N87, or HAY cells from frozen stocks were cultured in medium containing necessary supplements.
Mice were injected subcutaneously with 100 μL/mouse of cell mixture and monitored for body weight and tumor growth.
Mice were randomized to five mice per group once tumor implants reached an average volume of 100 mm^3. Treatment was given intravenously at a volume of 200 μL. Terminal body weight was measured and recorded at the end of each study.
Comparison of tumor growth within each experimental group was also performed using the same statistical analysis.

[3] = Eribulin quantitation by LC-MS in plasma, tumor, and bone marrow (Example 9); assay type: in vivo, mouse; conditions: single dose 10 mg/kg
Protocol: (§1) PK analysis was performed using both an intact ADC assay and a total antibody assay. Total antibody refers to the sum total of all species, including conjugated and unconjugated species (i.e., DAR0+DAR1+DAR2+ . . . +DARn), whereas intact ADC refers to all conjugated species (i.e., DAR1+DAR2+ . . . +DARn). Total antibody assay used biotinylated mesothelin for capture and AlexaFluor647-labelled anti-human Fc for detection. Intact ADC assay used biotinylated anti-eribulin 5E4 for capture and AlexaFluor647-labelled anti-human Fc for detection. Sample analysis was performed on a Gyros analyzer. Data analysis was performed in WatsonLIMS 7.4.1 and plotted in Microsoft Excel. Eribulin was quantitated using LC-MS from plasma, tumor, and bone marrow samples. 9.1.3 LC-MS

[4] = tested on: human gastric cancer NCI-N87 xenograft; assay: Human gastric cancer NCI-N87 xenograft model (Study M109-010-2018); assay type: in vivo, mouse; conditions: 10 mg/kg
[5] = tested on: MSLN-positive cell lines
[6] = tested on: human mesothelioma PDX Meso7212; conditions: mouse, in vivo, 10 mg/kg
[7] = tested on: human mesothelioma PDX Meso7212; assay: Human mesothelioma PDX model Meso7212 (Example 3); conditions: for anti-tumor response: single administration of 10 mg/kg
[8] = Pharmacokinetics (total antibody and intact ADC, Gyros) in NCI-N87 tumor-bearing mice (Example 9); assay type: in vivo, mouse; conditions: single dose 10 mg/kg
Protocol: as §1

[9] = Pharmacokinetics (total antibody and intact ADC, Gyros) in NCI-N87 tumor-bearing mice, dose titration (Example 5); assay type: in vivo, mouse; conditions: NCI-N87 tumor-bearing mice
Protocol: as §1, with “mesothelin for capture. Intact ADC” for “mesothelin for capture and AlexaFluor647-labelled anti-human Fc for detection. Intact ADC”, “anti-eribulin 5E4 Fab fragment for capture” for “anti-eribulin 5E4 for capture”, “Microsoft Excel.” for “Microsoft Excel. Eribulin was quantitated using LC-MS from plasma, tumor, and bone marrow samples. 9.1.3 LC-MS”

[10] = tested on: MSLN-expressing CHO cells; assay: ADCC activity, luciferase assay with Jurkat-Effector cells; assay type: cell-based; conditions: Table 33: MORAb-109 and 345A12 HC15 LC4
Protocol: MSLN-expressing CHO cells were thawed and seeded 1.000 cells/well (25 μL) in 96-well tissue culture plates in complete RPMI-4% Ultralow IgG FBS. […] 6,000 Jurkat-Effector cells (Promega) were thawed and added (25 μL) to the cell plate, and the plate was incubated at 37° C. 5% CO2 for 18-22 hours.
Luciferase assay reagent was thawed in the dark. 75 μL of luciferase assay reagent was added to each well, plates were shaken for 30 sec on a plate shaker. Plates were read on a luminometer after 5 min incubation.

[11] = NCI-N87 tumor-bearing mice, […]
[12] = eribulin in bone marrow, NCI-N87-tumor-bearing mice
[13] = eribulin in plasma, NCI-N87-tumor-bearing mice
[14] = eribulin in tumor, NCI-N87-tumor-bearing mice

B1: MORAb-109 (DAR6) (conjugate)
heavy: QVQLVESGGGVVQPGRSLRLSCAASGIDLSSYAMSWVRQAPGKGLEWIGVIDISGNRFYADWVKGRFTISRDNSKNTLYLQMSSLRAEDTAVYYCARVDSRAWGPFNLWGQGTLVTVSS[skipping human IgG1 constant region]
light: DYQMTQSPSSLSASVGDRVTITCQASQSIFSYLAWYQQKPGKAPKLLIYDASDLASGVPSRFSGSGSGTDFTLTISSLQCEDAATYYCQQGYTRSDVDNAFGGGTKVEIKRTVAAPSVFIFPPSDEQLKSGTASVVCLLNNFYPREAKVQWKVDNALQSGNSQESVTEQDSKDSTYSLSSTLTLSKADYEKHKVYACEVTHQGLSSPVTKSFNRGEC
In the case of B1, the “Averaged DAR” value [1, 11] is reported as 5.52, the “H-chain (DAR in plasma)” value [1, 11] is reported as 1.23 and the “L-chain (DAR in plasma)” value [1, 11] is reported as 1.52. For the same molecule, the “Averaged DAR” value ([1]; 8 hr) was 5.18, the “H-chain (DAR in plasma)” value ([1]; 8 hr) was 1.13 and the “L-chain (DAR in plasma)” value ([1]; 8 hr) was 1.46. For the same molecule, the “Averaged DAR” value ([1]; 24 hr) was 4.15, the “H-chain (DAR in plasma)” value ([1]; 24 hr) was 0.81 and the “L-chain (DAR in plasma)” value ([1]; 24 hr) was 1.26. The “Averaged DAR” value ([1]; 48 hr) was 3.91, the “H-chain (DAR in plasma)” value ([1]; 48 hr) was 0.71 and the “L-chain (DAR in plasma)” value ([1]; 48 hr) was 1.25. The “Averaged DAR” value ([1]; 96 hr) was 3.42, the “H-chain (DAR in plasma)” value ([1]; 96 hr) was 0.44 and the “L-chain (DAR in plasma)” value ([1]; 96 hr) was 1.27. The “Averaged DAR” value ([1]; 336 hr) was 2.41, the “H-chain (DAR in plasma)” value ([1]; 336 hr) was 0.35 and the “L-chain (DAR in plasma)” value ([1]; 336 hr) was 0.86. The “Averaged DAR” value ([1]; […]) was 2.61, the “H-chain (DAR in plasma)” value ([1]; […]) was 0.38 and the “L-chain (DAR in plasma)” value ([1]; […]) was 0.93. For the same molecule, the “payload release rate (DAR analysis of plasma samples)” value ([1]; DAR6 vs DAR2) was “higher”, the anti-tumor response ([2]; FIG. 14A) was “durable and similar anti-tumor responses” and the body weight change ([2]; FIG. 14B) was “no body weight loss”. The “AUC0-inf, Bone marrow ERI” value [3, 12] was 6.7 µg·h/mL, the “T1/2, Bone marrow ERI” value [3, 12] was 76 h and the “Tmax, Bone marrow ERI” value [3, 12] was 3 h. The “AUC0-inf, Plasma ERI” value [3, 13] was 0.121 µg·h/mL, the “Cmax, Plasma ERI” value [3, 13] was 0.0026 µg/mL and the “T1/2, Plasma ERI” value [3, 13] was 33 h. For the same molecule, the “Tmax, Plasma ERI” value [3, 13] was 1 h, the “AUC0-inf, Tumor ERI” value [3, 14] was 16.0 µg·h/mL and the “Cmax, Tumor ERI” value [3, 14] was 96 ng/g. The “T1/2, Tumor ERI” value [3, 14] was 98 h, the “Tmax, Tumor ERI” value [3, 14] was 24 h and the “plasma levels of eribulin” value ([3]; DAR6 vs DAR2) was “higher plasma levels of eribulin”. The anti-tumor response ([4]; FIG. 13A) was “durable and similar anti-tumor responses”, the body weight change ([4]; FIG. 13B) was “little to no weight loss” and the “cytotoxicity on MSLN-positive cell lines” value [5] was “specific cytotoxicity”. For the same molecule, the body weight change [6] was “No body weight loss”, the “anti-tumor activity as compared to the MTD dose of eribulin alone” value ([7]; Meso7212 (MV15369), both treatment regimens, P<0.05) was “significantly increased anti-tumor activity” and the anti-tumor response ([7]; Meso7212 (MV15369)) was “durable and comparable anti-tumor responses”. The anti-tumor response ([7]; Meso7212 (MV16071)) was “durable and comparable anti-tumor responses”, the “AUC0-inf, ADC” value [8] was 13700 µg·h/mL and the “AUC0-inf, Total Ab” value [8] was 14400 µg·h/mL. The “CLtot, ADC” value [8] was 17.5 mL/day/kg, the “Cmax, Total Ab” value [8] was 148 µg/mL and the “T1/2, ADC” value [8] was 103 h. The “T1/2, Total Ab” value [8] was 129 h, the “Tmax, Total Ab” value [8] was 0.17 h and the “Vdss, ADC” value [8] was 0.1 L/kg.

B2: MORAb-109 (conjugate)
heavy: QVQLVESGGGVVQPGRSLRLSCAASGIDLSSYAMSWVRQAPGKGLEWIGVIDISGNRFYADWVKGRFTISRDNSKNTLYLQMSSLRAEDTAVYYCARVDSRAWGPFNLWGQGTLVTVSS[skipping human IgG1 constant region]
light: DYQMTQSPSSLSASVGDRVTITCQASQSIFSYLAWYQQKPGKAPKLLIYDASDLASGVPSRFSGSGSGTDFTLTISSLQCEDAATYYCQQGYTRSDVDNAFGGGTKVEIKRTVAAPSVFIFPPSDEQLKSGTASVVCLLNNFYPREAKVQWKVDNALQSGNSQESVTEQDSKDSTYSLSSTLTLSKADYEKHKVYACEVTHQGLSSPVTKSFNRGEC
modifications: non-natural residues
With B2 the CL ([9]; 5 mg/kg, Intact ADC) was 12.2 mL/day/kg, the Cmax ([9]; 5 mg/kg, Intact ADC) was 62.9 µg/mL and the T1/2 ([9]; 5 mg/kg, Intact ADC) was 125.1 h. For the same molecule, the Vdss ([9]; 5 mg/kg, Intact ADC) was 0.0787 L/kg, the CL ([9]; 5 mg/kg, Total Ab) was 7.58 mL/day/kg and the Cmax ([9]; 5 mg/kg, Total Ab) was 73.2 µg/mL. The T1/2 ([9]; 5 mg/kg, Total Ab) was 173.9 h, the Vdss ([9]; 5 mg/kg, Total Ab) was 0.0751 L/kg and the CL ([9]; 10 mg/kg, Intact ADC) was 11.4 mL/day/kg. The Cmax ([9]; 10 mg/kg, Intact ADC) was 105 µg/mL, the T1/2 ([9]; 10 mg/kg, Intact ADC) was 148.2 h and the Vdss ([9]; 10 mg/kg, Intact ADC) was 0.0995 L/kg. For the same molecule, the CL ([9]; 10 mg/kg, Total Ab) was 6.22 mL/day/kg, the Cmax ([9]; 10 mg/kg, Total Ab) was 123 µg/mL and the T1/2 ([9]; 10 mg/kg, Total Ab) was 231.6 h. The Vdss ([9]; 10 mg/kg, Total Ab) was 0.0896 L/kg, the CL ([9]; 15 mg/kg, Intact ADC) was 9.94 mL/day/kg and the Cmax ([9]; 15 mg/kg, Intact ADC) was 169 µg/mL. The T1/2 ([9]; 15 mg/kg, Intact ADC) was 142.1 h, the Vdss ([9]; 15 mg/kg, Intact ADC) was 0.0811 L/kg and the CL ([9]; 15 mg/kg, Total Ab) was 5.66 mL/day/kg. For the same molecule, the Cmax ([9]; 15 mg/kg, Total Ab) was 205 µg/mL, the T1/2 ([9]; 15 mg/kg, Total Ab) was 209.2 h and the Vdss ([9]; 15 mg/kg, Total Ab) was 0.0688 L/kg. For the same molecule, the CL ([9]; 20 mg/kg, Intact ADC) was 10.3 mL/day/kg, the Cmax ([9]; 20 mg/kg, Intact ADC) was 214 µg/mL and the T1/2 ([9]; 20 mg/kg, Intact ADC) was 151.5 h. For the same molecule, the Vdss ([9]; 20 mg/kg, Intact ADC) was 0.0909 L/kg, the CL ([9]; 20 mg/kg, Total Ab) was 5.52 mL/day/kg and the Cmax ([9]; 20 mg/kg, Total Ab) was 270 µg/mL. The T1/2 ([9]; 20 mg/kg, Total Ab) was 218.6 h, the Vdss ([9]; 20 mg/kg, Total Ab) was 0.0706 L/kg and the CL ([9]; 25 mg/kg, Intact ADC) was 11.1 mL/day/kg. It also gave a Cmax ([9]; 25 mg/kg, Intact ADC) of 271 µg/mL, a T1/2 ([9]; 25 mg/kg, Intact ADC) of 143.5 h and a Vdss ([9]; 25 mg/kg, Intact ADC) of 0.0911 L/kg. For the same molecule, the CL ([9]; 25 mg/kg, Total Ab) was 5.76 mL/day/kg, the Cmax ([9]; 25 mg/kg, Total Ab) was 322 µg/mL and the T1/2 ([9]; 25 mg/kg, Total Ab) was 226.1 h. It also gave a Vdss ([9]; 25 mg/kg, Total Ab) of 0.0782 L/kg and an ADCC activity [10] of 96.9%.
